# Some of the results follow. The list includes weakly bound sequences.
# Target: T1, MBP-FoxP3dN (UniProt Q99JB6)
# T1 sequence: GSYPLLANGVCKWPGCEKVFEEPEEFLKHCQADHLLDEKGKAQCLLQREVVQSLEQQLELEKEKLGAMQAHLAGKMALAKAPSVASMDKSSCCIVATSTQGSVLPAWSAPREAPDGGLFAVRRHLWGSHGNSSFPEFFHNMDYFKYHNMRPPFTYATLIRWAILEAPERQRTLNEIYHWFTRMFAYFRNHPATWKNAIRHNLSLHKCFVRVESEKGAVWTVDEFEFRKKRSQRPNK
# Experiment: PD-seq (MBP pull-down with sequencing)
# Conditions: 20 mM Tris-HCl pH 7.5, 100 mM NaCl, 1.5 mM MgCl2, 0.4 uM protein, 0.1 uM dsDNA library, 30 min, room temperature, amylose pull-down; high values mean tight binding; double strand, one strand shown
row,Sequence,binding signal (RPM ratio (pull-down/input))
1,GATGATTGTTCTCCCAGCTGATGAATTCTAGGCATCGAGTAAACAAATTTTCCTAATCTTTCTGTTCAAGCGCCATCTAC,0.591
2,GATGATTGTTCTCCCAGCTGATGAATTGGCCGCTTCGAGTAAACAAATTTTCCTAATCTTTCTGTTCAAGCGCCATCTAC,0.415
3,GATGATTGTTCTCCCAGCTGATGAATTGCACATTTCGAGTAAACAAATTTTCCTAATCTTTCTGTTCAAGCGCCATCTAC,1.41
4,GATGATTGTTCTCCCAGCTGATGAATTGTGTACATCGAGTAAACAAATTTTCCTAATCTTTCTGTTCAAGCGCCATCTAC,3.98
5,GATGATTGTTCTCCCAGCTGATGAATTACGGGTATCGAGTAAACAAATTTTCCTAATCTTTCTGTTCAAGCGCCATCTAC,0.8
6,GATGATTGTTCTCCCAGCTGATGAATTCGACAAATCGAGTAAACAAATTTTCCTAATCTTTCTGTTCAAGCGCCATCTAC,0.274
7,GATGATTGTTCTCCCAGCTGATGAATTACATAACTCGAGTAAACAAATTTTCCTAATCTTTCTGTTCAAGCGCCATCTAC,0.577
8,GATGATTGTTCTCCCAGCTGATGAATTTTCGTAATCGAGTAAACAAATTTTCCTAATCTTTCTGTTCAAGCGCCATCTAC,0.8
9,GATGATTGTTCTCCCAGCTGATGAATTATACCAATCGAGTAAACAAATTTTCCTAATCTTTCTGTTCAAGCGCCATCTAC,0.472
10,GATGATTGTTCTCCCAGCTGATGAATTAAGACTTTCGAGTAAACAAATTTTCCTAATCTTTCTGTTCAAGCGCCATCTAC,1.06
11,GATGATTGTTCTCCCAGCTGATGAATTCCACTGATCGAGTAAACAAATTTTCCTAATCTTTCTGTTCAAGCGCCATCTAC,0.292
12,GATGATTGTTCTCCCAGCTGATGAATTGTAGACGTCGAGTAAACAAATTTTCCTAATCTTTCTGTTCAAGCGCCATCTAC,0.433
13,GATGATTGTTCTCCCAGCTGATGAATTCTCCGGTTCGAGTAAACAAATTTTCCTAATCTTTCTGTTCAAGCGCCATCTAC,0.219
14,GATGATTGTTCTCCCAGCTGATGAATTTACCTCATCGAGTAAACAAATTTTCCTAATCTTTCTGTTCAAGCGCCATCTAC,0.66
15,GATGATTGTTCTCCCAGCTGATGAATTCAACTCATCGAGTAAACAAATTTTCCTAATCTTTCTGTTCAAGCGCCATCTAC,0.429
16,GATGATTGTTCTCCCAGCTGATGAATTTATTTTCTCGAGTAAACAAATTTTCCTAATCTTTCTGTTCAAGCGCCATCTAC,5.54
17,GATGATTGTTCTCCCAGCTGATGAATTCTGAGATTCGAGTAAACAAATTTTCCTAATCTTTCTGTTCAAGCGCCATCTAC,0.498
18,GATGATTGTTCTCCCAGCTGATGAATTTGGGCGTTCGAGTAAACAAATTTTCCTAATCTTTCTGTTCAAGCGCCATCTAC,1.22
19,GATGATTGTTCTCCCAGCTGATGAATTGCCACAGTCGAGTAAACAAATTTTCCTAATCTTTCTGTTCAAGCGCCATCTAC,0.98
20,GATGATTGTTCTCCCAGCTGATGAATTTACTTTATCGAGTAAACAAATTTTCCTAATCTTTCTGTTCAAGCGCCATCTAC,0.951

row,Sequence,binding signal (RPM ratio (pull-down/input))
1,GATGATTGTTCTCCCAGCTGATGAATTCAGAATCTCGAGTAAACAAATTTTCCTAATCTTTCTGTTCAAGCGCCATCTAC,1.15
2,GATGATTGTTCTCCCAGCTGATGAATTCATTGACTCGAGTAAACAAATTTTCCTAATCTTTCTGTTCAAGCGCCATCTAC,1.49
3,GATGATTGTTCTCCCAGCTGATGAATTTTCTCTCTCGAGTAAACAAATTTTCCTAATCTTTCTGTTCAAGCGCCATCTAC,0.251
4,GATGATTGTTCTCCCAGCTGATGAATTAAAACCGTCGAGTAAACAAATTTTCCTAATCTTTCTGTTCAAGCGCCATCTAC,0.225
5,GATGATTGTTCTCCCAGCTGATGAATTCGAAACATCGAGTAAACAAATTTTCCTAATCTTTCTGTTCAAGCGCCATCTAC,0.645
6,GATGATTGTTCTCCCAGCTGATGAATTTGCACGATCGAGTAAACAAATTTTCCTAATCTTTCTGTTCAAGCGCCATCTAC,0.449
7,GATGATTGTTCTCCCAGCTGATGAATTTAGACCCTCGAGTAAACAAATTTTCCTAATCTTTCTGTTCAAGCGCCATCTAC,0.611
8,GATGATTGTTCTCCCAGCTGATGAATTCAAGCGCTCGAGTAAACAAATTTTCCTAATCTTTCTGTTCAAGCGCCATCTAC,0.535
9,GATGATTGTTCTCCCAGCTGATGAATTCGAGTTTTCGAGTAAACAAATTTTCCTAATCTTTCTGTTCAAGCGCCATCTAC,0.651
10,GATGATTGTTCTCCCAGCTGATGAATTTAGAATCTCGAGTAAACAAATTTTCCTAATCTTTCTGTTCAAGCGCCATCTAC,1.63
11,GATGATTGTTCTCCCAGCTGATGAATTGGATTTCTCGAGTAAACAAATTTTCCTAATCTTTCTGTTCAAGCGCCATCTAC,0.846
12,GATGATTGTTCTCCCAGCTGATGAATTATCTGTTTCGAGTAAACAAATTTTCCTAATCTTTCTGTTCAAGCGCCATCTAC,0.451
13,GATGATTGTTCTCCCAGCTGATGAATTGGGGCAATCGAGTAAACAAATTTTCCTAATCTTTCTGTTCAAGCGCCATCTAC,1.53
14,GATGATTGTTCTCCCAGCTGATGAATTTACCCTGTCGAGTAAACAAATTTTCCTAATCTTTCTGTTCAAGCGCCATCTAC,0.384
15,GATGATTGTTCTCCCAGCTGATGAATTGCTTAACTCGAGTAAACAAATTTTCCTAATCTTTCTGTTCAAGCGCCATCTAC,0.498
16,GATGATTGTTCTCCCAGCTGATGAATTTTAAAATTCGAGTAAACAAATTTTCCTAATCTTTCTGTTCAAGCGCCATCTAC,0.216
17,GATGATTGTTCTCCCAGCTGATGAATTTTTCTTTTCGAGTAAACAAATTTTCCTAATCTTTCTGTTCAAGCGCCATCTAC,0.256
18,GATGATTGTTCTCCCAGCTGATGAATTTTAGACCTCGAGTAAACAAATTTTCCTAATCTTTCTGTTCAAGCGCCATCTAC,0.262
19,GATGATTGTTCTCCCAGCTGATGAATTGAGCTCATCGAGTAAACAAATTTTCCTAATCTTTCTGTTCAAGCGCCATCTAC,0.404
20,GATGATTGTTCTCCCAGCTGATGAATTTATGATATCGAGTAAACAAATTTTCCTAATCTTTCTGTTCAAGCGCCATCTAC,1.11
